# Experimental data: the supplement of paper PMC10126150
# Values marked as one replicate rest on one cluster of the flow cell; about a third of the high ones do not repeat.
# Tested on: ATP
# Experiment: switch fluorescence ratio, 500 uM ATP over buffer (Cy3 cluster intensity, sum of 5 cycles each) (fold (ratio)); higher = stronger signal-on switching upon ATP binding; sequences stand for … in TCGTCGGCAGCGTCAGATGTGTATAAGAGACAGTTTTTTTTTTTTTTTTTTTTTTTTT…TC
# Settings: aptamer strand: ATP DNA aptamer (quencher-CACCTGGGGGAGTATTGCGGAGGAAGG + anchor), 100 nM annealed; ATP concentration: 500 uM; one replicate
# How it was run: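 Clusters carrying Cy3-labelled switching strands on a modified Illumina MiSeq flow-cell were annealed to 100 nM quencher-labelled ATP aptamer and imaged in selection buffer. They were imaged again after 15 min with 500 uM ATP at 22 °C, over five buffer/ATP cycles with NaOH stripping and re-annealing in between. For each cluster, the fluorescence ratio is the summed Cy3 intensity of the target cycles divided by that of the buffer cycles, averaged per switch-domain sequence. Clusters outside 100-1000 RFU were left out.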
# 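Note: ATP exposure 15 min at 22 °C before imaging.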
row,Sequence,switch fluorescence ratio
1,ACTTTTTCAG,1
2,CATGTCGCTT,0.996
3,GCTGTAAAGG,1
4,GCTAATCGGA,0.96
5,ACGGGACGCC,1.11
6,AATAGTCCCC,1.08
7,GACGAAGGAC,2.03
8,TCCAGATGCT,1.01
9,CAGCGCTGGT,0.957
10,TTGCAGGATT,1.04
11,TCGGCGTCTA,0.988
12,GAAAAGGATG,1
13,CTAACTGAAG,1.04
14,AAGTTCTAAT,1.03
15,TTGGTGGGCT,0.995
16,TTGCACTCGT,1.02
17,ATTTTTTAGC,0.918
18,AGTTGATTCC,1.06
19,CCGAGCACGC,1.58
20,GGTAGCTCTA,0.977
21,TCGGTGGGAT,1.01
22,GCGGGAGAGT,1.03
23,GAGCGTCCGA,1.01
24,GTCGGTTTGG,0.977
25,ATCGGGAC,0.982
26,AGTCCTTTAA,0.954

row,Sequence,switch fluorescence ratio
1,TGGCGTACTG,0.99
2,CGTCAAAATT,1.03
3,AATACGAAA,1.05
4,ACCCAGGATG,3.91
5,GGTGATTAG,1.01
6,CGTTCAACTT,0.997
7,AATAGGCCCC,1
8,CTAGCCTCGG,0.979
9,GCGATATAAT,1.01
10,AGATGTGTG,0.95
11,CATCACTTAA,1.04
12,GGCTGAAAGC,1.04
13,GACTGACACC,1.27
14,GAAGGGACAG,1
15,CCTAGTCGTC,0.979
16,ATGGTAGTG,0.97
17,AGTCAGTGGC,1
18,CGTTAGCGTA,1.01
19,ATAAACAGA,0.98
20,AGAGATGAGT,1
21,TGATGGTAAC,1.01
22,AAATGGGTCA,1.02
23,ATAAAGTGGG,0.99
24,ATTGGTGCAC,1.01
25,AAAAGGCTCG,1.02
26,GTGGTTCGCG,0.976

row,Sequence,switch fluorescence ratio
1,GGATCGTGGA,1.01
2,CCGTAGAAT,2
3,TTAAGTCCCA,1.01
4,GGCACAGGAA,1.05
5,GAGTTTATAA,0.97
6,AGGCTGACCA,1.03
7,CGAAGCTGAT,1.43
8,GGGAAGGAAA,1.05
9,CAATCGTTCG,1.02
10,TAGGATTGTT,1.01
11,TTGGGCGAAA,1.02
12,TTAAGTACTC,1.34
13,CAATCAAGTC,1.01
14,GGGGATCAGT,0.964
15,ACGTCGAAAA,1.01
16,TGACCCATTG,0.995
17,GGAGCGGGCG,0.879
18,GTACGTCCGG,0.972
19,CGATAAGGCT,0.989
20,TGAGCTGATC,1.28
21,CATTCAGGCA,0.991
22,TGCCAGGGCT,0.874
23,AGGTGGGTAG,1.02
24,GTTCTGCGGG,0.986
25,AGACAGTTT,1
26,TTTCCGGGTT,1.01

row,Sequence,switch fluorescence ratio
1,CGACATCAGA,1.02
2,AATCGAAGT,1.02
3,GGACCGGTAC,1.01
4,AGGAAGGATC,1.01
5,TTGTTGGGAG,1.03
6,TTCGATAATT,0.991
7,ATCTTTCGG,1.03
8,CCCCTTTACG,1.04
9,TTTGTAGGG,0.967
10,TAGAGACAGA,1.08
11,TTGTTTAGAT,1.01
12,ATCGAGGATC,0.962
13,ACCACGAGTG,1.02
14,TACCACATTT,1.02
15,TGAGCACGTC,0.975
16,TTACTGTGG,0.991
17,CGGCAATCGC,3.04
18,GGAATCCTCA,1.01
19,AAGCGCTTAG,0.972
20,GTTTAGGCAC,1.01
21,TGCTTTTCCA,0.993
22,GCACCCCTGG,1.35
23,AGCGCGGCGA,1.08
24,CAGGGGTGAC,1.01
25,CATGTCCGGG,1.03
26,TCGTTAACTC,1.05

row,Sequence,switch fluorescence ratio
1,TCTCCTTGA,1
2,CGGTTTATGT,0.994
3,ACCGGAATCG,1.09
4,CGTATTCAAG,0.996
5,ACTTCGGCAT,1.54
6,TCCTGGTCAG,1.01
7,CGTCCGTCTC,1.13
8,AACCCGTAAA,0.983
9,TGGTGAGCTT,0.925
10,TGGTGTTCTT,0.988
11,AGTCGCAAGT,1.06
12,CCGTAGGCCC,1.07
13,GAGCCCCGTA,1.02
14,CAGCAAACTT,1.69
15,GCTGGGGGC,1.01
16,CGCAGCCGC,1.22
17,GTGTGGACGT,0.947
18,TGCGATGCAT,1.11
19,TTCCCTCATG,1.09
20,ATAGTAGTGC,1.05
21,TGCTGCTAAC,1.18
22,AAAGGCAAAT,1
23,GCATAGTGCT,1.04
24,TTATGGGTGC,1.01
25,CCGCGGGGAA,1.02
26,AGCGTTAACG,1

row,Sequence,switch fluorescence ratio
1,CTAATTCTCG,1.06
2,TCCGCTGATT,1.86
3,CTGGTTTGCT,0.966
4,TTCTTATGTA,1.03
5,GGCACATCGT,1.02
6,TACTGCGGGG,1.03
7,TTTCCAGATG,1.06
8,CCTACTTAGT,1.07
9,TGAAGATCGG,0.956
10,ATGTCACGGA,1.04
11,CACTGTGAGC,1.06
12,GCTGTAACGT,0.952
13,GGGGGTCTAT,1.02
14,AAACCCTTGC,2.14
15,GACCCACCCT,1.37
16,AAGTGTATAC,1.04
17,CGTGGTTTGG,1
18,CGGCGGACTG,0.958
19,ATGTCCACGT,0.975
20,GGATGATTGC,0.939
21,GAGTCCCTGC,1.09
22,CAAATGTAAA,1
23,ATGGAGTAA,1.01
24,GTTGTTGGAT,1.01
25,ATGGTGCGAT,0.97
26,GAAAGACAC,1.05

row,Sequence,switch fluorescence ratio
1,AGCGCTCTGT,1.05
2,AGTATTGAGT,1.01
3,GCTATCATAC,1.39
4,CCTTTTCACT,1.03
5,GGGAATACAG,0.998
6,TGCGAGCAAG,1.02
7,TTTGTGTACG,1.03
8,CTTGAGGGA,1.01
9,ATCTAAGGGC,1.03
10,ACCCGCGGGC,1.06
11,TAGCCATAG,1.06
12,AGCGCAACAA,1.38
13,TTCGCAGCGA,2.14
14,CCCCAGAAGA,1.1
15,TCCCGTTGTT,0.976
16,GTCGCTAGGG,1.02
17,AGGGAAGTAG,0.991
18,TAAACGCTTG,1
19,CCCATGAAAG,0.959
20,CCCGGGGATC,1.04
21,CGAGAGCGGC,1.1
22,CGTGGCATTC,1.55
23,TCGTTACTCT,0.988
24,ATACAGAACC,1.07
25,TTGTGGCCTG,0.985
26,GATCCAGATT,1.01

row,Sequence,switch fluorescence ratio
1,GACTTTAACA,1.06
2,ATTTTGCTCC,0.992
3,TAGATCAATA,0.987
4,TATCGTTACT,1.07
5,ACTTAAAGTT,1.01
6,CTCACCGCTA,3.45
7,TTGTGTCAAC,1.04
8,TTATTACGCA,1.24
9,TCTCATTGTT,0.968
10,CCGGGCAACT,4.37
11,GCTCAAAAAA,1.01
12,TTAACGTAGC,1.13
13,AGAGACCGAA,1.01
14,TATCCAACCC,1.11
15,ATGTAGTCTG,0.97
16,GGCAGAGACT,1.01
17,CAACCTTAGG,1.01
18,CCACGAGACA,1.23
19,ATCGGACTGC,1.24
